In publication PMC6919601, “Identification of Plasmodium dipeptidyl aminopeptidase allosteric inhibitors by high throughput screening” (PLoS ONE, 2019):
About 230 (0.21%) of roughly 110,000 compounds showed an effect of 50% or more. This is one part of the list.

molecular target: DPAP1 (Plasmodium falciparum, UniProt Q8IIJ9); test: primary screen, percent inhibition; read by cleavage of a fluorogenic dipeptide substrate; higher = more effect of the substance; set-up: species or system P. falciparum D10 trophozoite lysates; single well
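Note: 30 min substrate incubation versus DMSO and 10 µM JCP410 controls.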

Chain of DPAP1 (Q8IIJ9 whole entry, looked up): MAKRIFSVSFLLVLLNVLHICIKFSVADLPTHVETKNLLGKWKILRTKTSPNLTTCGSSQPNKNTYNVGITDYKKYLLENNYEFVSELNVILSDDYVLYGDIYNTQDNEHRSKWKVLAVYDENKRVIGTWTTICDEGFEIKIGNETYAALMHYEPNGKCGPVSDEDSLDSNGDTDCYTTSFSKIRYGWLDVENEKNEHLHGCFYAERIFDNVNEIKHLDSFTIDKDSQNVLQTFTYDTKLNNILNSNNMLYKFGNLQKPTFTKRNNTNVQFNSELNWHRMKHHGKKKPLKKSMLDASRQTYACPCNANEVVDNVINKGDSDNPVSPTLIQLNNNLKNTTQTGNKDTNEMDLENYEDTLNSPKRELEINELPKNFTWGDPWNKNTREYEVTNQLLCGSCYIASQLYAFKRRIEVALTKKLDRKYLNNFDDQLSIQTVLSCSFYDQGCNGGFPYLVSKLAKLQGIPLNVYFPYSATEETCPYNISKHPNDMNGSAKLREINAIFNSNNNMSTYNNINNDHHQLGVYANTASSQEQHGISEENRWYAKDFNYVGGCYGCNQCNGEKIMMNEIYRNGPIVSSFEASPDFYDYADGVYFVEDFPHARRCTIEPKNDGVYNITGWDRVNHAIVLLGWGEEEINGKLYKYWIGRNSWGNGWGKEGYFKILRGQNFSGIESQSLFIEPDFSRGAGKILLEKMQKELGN

SMILES | % Inhibition @ 10 uM [%]
COc1ccc(OC)c(C2=NOC(C(=O)NC(C)C)C2)c1 (stereo not drawn) | -0.431
CCOc1cc(/C=C2/NC(=O)NC2=O)cc(Cl)c1OC(C)C | 5.37
CCOc1ccccc1C1C2=C(O)CC(C)(C)CC2=NC(C)=C1C(=O)OC (stereo not drawn) | -0.999
COc1cc(OC)cc(C(=O)N2CCN(CCCc3ccccc3)CC2)c1 | -3.37
COc1ccccc1NC(=O)C1=C(C)N=C2CCCC(O)=C2C1c1ccc(Cl)cc1 (stereo not drawn) | 0.343
CC1CCCC(C)N1CCNC(=O)C1CCN(S(C)(=O)=O)CC1 (stereo not drawn) | -4.97
Cc1cccc(C)c1NC(=O)CN(c1ccc(F)cc1)S(C)(=O)=O | 3.66
O=C1c2cccnc2C(=O)N1c1ccc(-c2nc3ccccc3s2)cc1 | 1.72
CCOC(=O)C1CCCN(CCCc2ccccc2)C1 (stereo not drawn) | -0.603
COc1ccc(Cl)cc1NC(=O)CN(c1cccc(C)c1)S(C)(=O)=O | -0.992
CCOC(=O)c1cc(-c2ccc(OC)c(S(=O)(=O)N3CCN(C4CCCCC4)CC3)c2)on1 | 3.95
O=C1N/C(=C/c2ccc(O)cc2)C(=O)N1Cc1ccccc1F | -1.28
CC/N=c1\c(NC(=O)C2CCC(C)CC2)c(O)oc2ccccc12 (stereo not drawn) | 5.43
O=C(O)c1ccc(CS(=O)Cc2ccc(Cl)cc2)o1 (stereo not drawn) | -0.256
Cc1nc(N2CCOCC2)c2c3c(sc2n1)CCC3 | 12.3
COc1cc2c(cc1OC)CN(Cc1ccc(F)c(Br)c1)CC2 | -3.77
C/C(=N\[C@@H](CS(=O)(=O)Cc1ccccc1OC(F)F)C(=O)NCC#N)NS(C)(=O)=O | -6.56
Cc1ccc(C)c(NS(=O)(=O)c2cc(Cl)ccc2Cl)c1 | 2.22
CNC(=O)N1c2ccc(C)cc2C2CN(C)CCC21 (stereo not drawn) | -0.969
CN1CCN(C(=O)c2ccc(CN(c3ccccc3)S(=O)(=O)c3ccccc3)cc2)CC1 | -1.51
Cc1ccc(C2NC(=O)c3c(sc4c3CCN(C)C4)N2)cc1 (stereo not drawn) | -1.28

SMILES | % Inhibition @ 10 uM [%]
CCc1ccc(NC(=O)CN(C2CCCCC2)S(C)(=O)=O)cc1 | -0.545
Cn1c(=O)c(-c2ccc(Cl)cc2)c(O)c2ccccc21 | 0.446
COc1cc(S(=O)(=O)Nc2ccc(C)cc2)ccc1/N=C/c1c(C)nn(-c2ccccc2)c1O | 1.19
CCC(C)N(CCNC(=O)C1CCN(c2ncnc3c2nc2n3CCCCC2)CC1)Cc1ccco1 (stereo not drawn) | 5.49
CC(CCc1ccccc1)NC(=O)Cn1cnc2onc(-c3ccc(F)cc3)c2c1=O (stereo not drawn) | 4.4
Cn1nc(C(=O)Nc2ccccn2)c2c1-c1ccccc1S(=O)(=O)C2 | 1.23
CCc1ccc(/C=C(/C#N)c2nc(-c3ccc(Cl)c(Cl)c3)cs2)cc1 | 0.827
Cc1nc2ncnn2c(O)c1NC(=O)c1cccc(F)c1 | 3.99
O=C(c1ccc(-c2ccccc2)cc1)N1CCCC1 | -3.82
CCCOC(=O)c1ccc(NC(=O)c2c(OC)cccc2OC)cc1 | 3.65
Cn1nc(C(=O)N2CCN(C(=O)c3ccco3)CC2)c2c1-c1ccccc1S(=O)(=O)C2 | -6.34
CC(NC(=O)c1cc2sccc2n1C)c1ccccc1 (stereo not drawn) | -6.68
N#Cc1c(N/C=C2/C(=O)NC(=O)N(c3ccc(Cl)cc3)C2=O)sc2c1CCC2 | 0.76
COc1ccc(S(=O)(=O)N2CCC(C(N)=O)(N3CCCCC3)CC2)cc1 | -2.5
COc1cccc(N(CC(=O)NCc2ccco2)S(=O)(=O)c2ccccc2)c1 | -5.19
CCCCNC(=O)Cn1c(=O)cc(C(F)(F)F)c2c(C)nn(C)c21 | -2.29
COc1cccc(Cn2c(-c3cncs3)nc3ccccc32)c1 | 4.93
Cc1ccc(CN2CCN(Cc3c[nH]c4ccccc34)CC2)cc1 | -7.05
Cc1nc2ccn(Cc3ccccc3)c(=O)c2cc1C(=O)NCCCc1ccco1 | 0.234
O=C(CC12CC3CC(CC(C3)C1)C2)OCC(O)CN1CCC(CO)CC1 (stereo not drawn) | 2.65
Cc1cc(C)nc(NC(=N)N2CCN(C)CC2)n1 | 2.03

SMILES | % Inhibition @ 10 uM [%]
O=C(Cn1nc(C(F)(F)F)cc1C1CC1)Nc1cccc(Br)c1 | 0.389
COC(=O)c1ccc(-c2ccc(/C=C3\C(=O)N(CCCO)C(=O)C(C#N)=C3C)o2)cc1 | -1.26
O=C(Nc1ccc(NC(=O)c2cccs2)cc1)c1ccc2c(c1)OCCO2 | -6.36
NC1=C(c2nc3ccccc3s2)C(=O)CN1CC1CCCO1 (stereo not drawn) | -2.99
Nc1ncc(Br)cc1S(=O)(=O)N1CCN(Cc2ccccc2)CC1 | -1.06
CC(=O)Nc1ccc(NC(=O)CC(C)C)cc1 | 0.324
CCOC(=O)N1CCC(/N=c2/c(N3CC4CC(C3)c3cccc(=O)n3C4)c(O)c2=O)CC1 (stereo not drawn) | 3.34
COc1ccccc1CNc1nc2ccccc2c2nc(-c3ccccc3)nn12 | -0.692
O=C(N/C(=C/c1ccc(Cl)cc1)c1nc2ccccc2[nH]1)c1ccco1 | 3.61
Cc1ccc(NC(=O)CSc2nc3ccccc3cc2C#N)cc1 | -1.38
CC1CCCC(C)N1C(=O)c1cc(-c2ccc(Cl)c(Cl)c2)on1 (stereo not drawn) | 0.0221
CCc1ccc(C2CC(c3cccc(OC)c3)n3nnnc3N2)cc1 (stereo not drawn) | 1.73
O=C(O)C1CCCN1S(=O)(=O)c1ccccc1 (stereo not drawn) | -0.712
O=C(NCC(c1ccccc1)C1CCCCC1)c1cccs1 (stereo not drawn) | -5.72
Cc1ccc(-c2coc3cc4oc(=O)ccc4cc23)cc1 | -1.15
CC(C)NC(=O)c1cnn(-c2ccc(F)cc2)c1-n1cccc1 | 0.942
Cc1nc2c(c(-c3ccccc3)c1C(=O)O)C(=O)CC(C)(C)C2 | 2.16
CN1c2ccccc2-c2ccccc2C12C=Cc1c(ccc3ccccc13)O2 (stereo not drawn) | 1.13
O=S(=O)(c1ccc(-c2cs/c(=N\c3ccccc3)n2CC2CCCO2)cc1)N1CCCC1 (stereo not drawn) | 2.01
CN1CCC(O)(C#N)C2CCCCC21 (stereo not drawn) | -5.47
CCOC(=O)c1[nH]c2ccccc2c1NC(=O)CC(C)C | -1.29
